Reference: PubChem BioAssay AID686978 (National Center for Advancing Translational Sciences (NCATS), 2013)
About 64,000 (15%) of roughly 420,000 compounds were called active. Inconclusive means that the source gave no clear call. Such entries were picked first, then a sample of the others. Calls come from the whole dose curve; as a rule, active = well fitted inhibition curve with a large enough effect; inconclusive = small, poorly fitted or top-dose-only effect; inactive = flat fitted curve, though single readings scatter. No potency is given beside an inconclusive call; the fits are too rough.

Assay: qHTS for Inhibitors of human tyrosyl-DNA phosphodiesterase 1 (TDP1): qHTS in cells in absence of CPT; note: nearly all actives have a fitted effect of over 55% in size
Details: DT40 Tdp1-/- hTDP1 cells, no CPT, ATP luminescence, 48 h; activity change, negative = growth inhibition: at 46.2 µM (top of the series) unless noted
In short: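 Readout: luminescence from CellTiter-Glo after 30 min in the dark at RT. Cells: DT40 Tdp1-/- with stable hTDP1, 400/well. Exposure: compounds alone, ≥48 hr, 37 °C.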
% is set by controls: 0 for no effect and ±100 for the full control effect; potency is the fitted concentration of half-maximal effect; tags give direction and shape of the fitted curve.

Compound | Potency | activity change, negative = growth inhibition
COc1ccccc1N(CC(=O)NCCc1ccccc1)C(=O)CCC(=O)Nc1cc(C)ccn1 | inactive | –
O=C(c1ccc(Cl)cc1Cl)N1CCc2ccccc21 | inconclusive [inhibitor, single point] | –
CCn1c(SCC(=O)OC)nc2sc3c(c2c1=O)CC(C)(C)OC3 | inconclusive [inhibitor, single point] | –
C[C@@]12CCC=C[C@H]1[C@H](c1ccccc1Br)N(Cc1ccccc1)C2=O | active: 16.4 µM | –
COc1ccc(CN2C(=O)c3ccccc3C2c2nnnn2-c2ccc3c(c2)OCCO3)cc1OC (stereo unspecified) | active: 20.6 µM | –
CC(C)c1ccc(S(=O)(=O)Nc2ccc(O)c(Sc3ncn[nH]3)c2)cc1 | inconclusive [inhibitor, single point] | –
CC(Oc1ccc2c(-c3ccccc3)cc(=O)oc2c1)C(=O)NCCCn1ccnc1 (stereo unspecified) | active: 14.6 µM | –
CCNC(=O)c1cc2c(c(-c3cccc(-c4cccc(C(=O)N(C)C)c4)c3)n1)[C@@H](CCO)N(S(=O)C(C)(C)C)C2 (stereo partly specified) | active: 20.6 µM | –
COc1ccccc1/C=C/C(=O)OCC(=O)c1c(N)n(C)c(=O)n(C)c1=O | inactive | –
O=C(c1cccc(S(=O)(=O)Nc2ccccc2Cl)c1)N1CCCCCC1 | inactive | –
COc1ccc2nc(Nc3nc(-c4cc5ccccc5oc4=O)cs3)sc2c1 | active: 11.6 µM | –
Cc1cc(OCC(=O)NCc2ccccn2)cc(C)c1Br | inconclusive [inhibitor, single point] | –
Cc1cc2nc(-c3nnnn3C3CCCCC3)c(=O)[nH]c2cc1C | inconclusive [inhibitor, partial curve, poor fit] | –
Cc1ccc(N(CC(=O)Nc2ccc(Cl)cc2)S(=O)(=O)c2cccc3nonc23)cc1 | inconclusive [inhibitor, partial curve, poor fit] | –
Nc1nc(=S)[nH]c2c1C1(CCCC1)Cc1ccccc1-2 | inconclusive [inhibitor, single point] | –
c1ccc2c(c1)OCC(c1csc3ncnc(N4CCCCC4)c13)O2 (stereo unspecified) | inconclusive [inhibitor, single point] | –
COc1cccc(NC(=O)Cn2c(=O)n(Cc3ccccc3)c(=O)c3ccccc32)c1 | inactive | –
CC(=O)c1cccc(OCC(=O)Nc2ccccc2N2CCOCC2)c1 | inconclusive [inhibitor, partial curve, poor fit] | –
NC(=O)c1oc2ccccc2c1NC(=O)C1CCCCC1 | inconclusive [inhibitor, single point] | –
NC(=O)C1CC(=O)N(c2ccc(OCC(=O)NCc3ccccc3)cc2)C1 (stereo unspecified) | inactive | –
CCCn1c(SCC(=O)Nc2ccc(C)c(S(=O)(=O)N3CCOCC3)c2)n[nH]c1=O | inactive | –
CC(=O)Nc1cccc(NC(=O)C2CC(=O)N(CCc3ccc(F)cc3)C2)c1 (stereo unspecified) | – | inconclusive: -34.4% [inhibitor]
CCCOc1ccc(-c2nc(C#N)c(N3CCN(C)CC3)o2)cc1 | inconclusive [inhibitor, single point] | –

Compound | Potency | activity change, negative = growth inhibition
CN(C)c1ccc(CNC(=O)Cn2c(=O)oc3cc(S(=O)(=O)N4CCCCCC4)ccc32)cc1 | inactive | –
COc1ccc(C(C)=O)cc1CN1C(=O)C(C)ON=C1c1ccccn1 (stereo unspecified) | inactive | –
Cc1ccc(NC(=O)Cc2coc3ccc(C(C)C)cc23)cc1Cl | active: 29.1 µM | –
CO/N=C/NC(=O)c1ccc([N+](=O)[O-])c(CS(=O)(=O)c2ccc(Cl)cc2)c1 | active: 10.3 µM | –
COc1cccc(CC2(CO)CCCN(Cc3cc4ccccc4[nH]3)C2)c1 (stereo unspecified) | inconclusive [inhibitor, single point] | –
O=c1c2ccccc2ncn1-c1ccc(Cl)cc1 | – | inconclusive: -34% [inhibitor]
O=C(COc1ccccc1)Nc1ccc2nc(SCC(=O)N3CCOCC3)sc2c1 | active: 14.6 µM | –
C/C(=N\OCC(=O)Nc1ccccc1C(C)(C)C)c1ccc2c(c1)OCCO2 | inconclusive [inhibitor, single point] | –
CCOC1CCCc2oc(-c3ccc(N(C)C)cc3)c(C(=O)OC)c21 (stereo unspecified) | inconclusive [inhibitor, single point] | –
CCOC(=O)c1c(NC(=O)c2ccc(OC)cc2)sc2c1CCCCC2 | inactive | –
O=C(NCc1ccccc1)Nc1cccn(Cc2ccccc2Cl)c1=O | inconclusive [inhibitor, single point] | –
CCOC(=O)c1ccc(NC(=S)NC(=O)c2nn(CC)cc2Br)cc1 | inconclusive [inhibitor, single point] | –
Cc1cccc(N2C(=O)/C(=C\c3ccc(OC(F)F)cc3)c3ccccc3C2=O)c1 | inconclusive [inhibitor, single point] | –
O=C(c1ccc(S(=O)(=O)N2CCCC2)cc1)N1CCCCC1 | inactive | –
CCNc1c(NS(=O)(=O)c2ccc([N+](=O)[O-])cc2)c(=O)oc2ccccc12 | inconclusive [inhibitor, single point] | –
O=C(NN=C1CCN(Cc2ccccc2)CC1)c1cc(Br)ccc1O | inactive | –
Cc1ccc(-n2ncc(C(=O)N3CCCCC3)c2C2CCN(C(=O)OC(C)(C)C)CC2)c(C)c1 | inconclusive [inhibitor, single point] | –
Cc1nn(C)cc1CNC(=O)c1cnn2c1NC(c1ccc(Br)cc1)CC2C(F)(F)F (stereo unspecified) | inconclusive [inhibitor, single point] | –
COc1ccc(OC)c(NC(=O)CN(Cc2ccc(F)cc2)C2CCCCC2)c1 | active: 16.4 µM | –
N#Cc1cn(CC(=O)N2CCc3ccccc3C2)c2ccccc12 | inconclusive [inhibitor, single point] | –
COc1ccccc1-c1ccc(SCC(=O)NCCc2ccccc2)nn1 | active: 23.1 µM | –
COC(=O)CC(NC(=O)c1cccs1)c1ccc(OC)c(OC)c1 (stereo unspecified) | inactive | –
CNCc1ccccc1OCc1ccccc1F | inconclusive [inhibitor, single point] | –
